# Test results as given in PubChem BioAssay AID485341 (National Center for Advancing Translational Sciences (NCATS), 2010).
# Hit rate of the full screen: of about 330,000 compounds, about 1,700 (0.52%) were called active. Inconclusive means that the source gave no clear call. Such entries were picked first, then a sample of the others. The call rests on the fitted dose curve; in most records, active means well fitted inhibition curve with a large enough effect; inconclusive means small, poorly fitted or top-dose-only effect; inactive means no such curve, though single readings can be large or run the other way. Potencies of inconclusive entries are doubtful fits and often do not repeat.
# Target: Beta-lactamase (Escherichia coli (strain K12)) (UniProt P00811)
# Assay: qHTS Inhibitors of AmpC Beta-Lactamase (assay without detergent); further: nearly all actives have a fitted effect of over 20% in size
# Settings: AmpC nitrocefin hydrolysis, absorbance 480 nm, 0.0001% Triton; series mostly up to 57.1 µM
# Description: NIH Molecular Libraries Probe Production Network [MLPCN] NIH Chemical Genomics Center [NCGC] Assay Provider: Professor Brian Shoichet, UCSF Assay Overview: This aggregation profiling approach exploits the sensitivity of aggregate formation to detergent. Inhibition of b-lactamase is measured in the presence and absence of 0.01% Triton X-100. This particular assay had the prescence of 0.01% Triton X-100. See Pubchem assay "Promiscuous and Specific Inhibitors of AmpC Beta-Lactamase (assay without detergent)" for related screen. Compounds that inhibit only in the absence of detergent are considered likely promiscuous aggregators. A screen of 1,030 compounds was performed in Brian Shoichet's lab in 96-well format. AmpC activity was measured by following the absorbance at 480 nm. Nitrocefin is a chromogenic substrate: while nitrocefin is yellow (lmax 390 nm), the product of its hydrolysis is red (lmax 486 nm, 17,000 M-1). AmpC beta lactamase was provided by Shoichet Lab, UCSF.
# Buffer: 20 mM phosphate buffer, pH 7.0 Triton X-100: No Detergent screen: 0.0001%, Detergent screen: 0.01%. Reagents/Controls: Buffer in columns 3 and 4 as negative control (no enzyme). 5.3 nM AmpC in columns 1, 2, 5-48. Titration of UCSF compound 9 control (from 10 mM, then 1:2) pin-transferred to column 2. Column 1 is neutral (100% activity). Assay Steps: Six uL of reagents were dispensed to 1536-well Greiner black clear bottom plates. Compounds and controls (23 nL) were transferred via Kalypsys PinTool. The plates were incubated for 15 min at room temperature, and then 2 uL of 800 uM solution of nitrocefin was added to start the reaction. The plates were immediately transferred to and read every 20 seconds for 4 min on ViewLux (Perkin-Elmer) High-throughput CCD imager using 480 nm absorbance protocol. During dispense, reagent bottles were kept submerged into 4 deg C water bath. Keywords: NIH Roadmap, MLSCN, MLI, MLSMR, qHTS, NCGC, AmpC Beta-Lactamase, Aggregation
# Potency means the concentration at half of the fitted maximal effect; tags describe the fitted curve by direction and shape.
# Chain of UniProt P00811 (P00811 whole entry, looked up): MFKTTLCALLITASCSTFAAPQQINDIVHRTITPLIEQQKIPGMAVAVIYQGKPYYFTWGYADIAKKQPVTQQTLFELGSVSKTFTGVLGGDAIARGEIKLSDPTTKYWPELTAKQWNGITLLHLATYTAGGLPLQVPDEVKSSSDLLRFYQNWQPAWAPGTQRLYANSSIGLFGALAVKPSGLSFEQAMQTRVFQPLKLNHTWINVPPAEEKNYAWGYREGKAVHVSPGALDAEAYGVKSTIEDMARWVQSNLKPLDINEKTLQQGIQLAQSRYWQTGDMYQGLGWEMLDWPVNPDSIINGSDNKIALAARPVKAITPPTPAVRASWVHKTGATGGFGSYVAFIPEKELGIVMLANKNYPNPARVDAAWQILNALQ
row,Structure (SMILES),Potency
1,O=C(NC1CCS(=O)(=O)C1)c1cccc(Br)c1 (stereo unspecified),"inconclusive: 31.6 µM [inhibitor, single point]"
2,O=C(Nc1cccc(/C=C/c2ccccn2)c1)c1cc(Cl)ccn1,inactive
3,COc1ccc(-c2nnc(NC(=O)c3ccc(F)cc3)o2)cc1,active: 22.4 µM
4,COc1ccccc1C(=O)NC(C)c1cccc2ccccc12 (stereo unspecified),inactive
5,O=C1CSC(=S)N1/N=C/c1cc(Br)c(O)c(Br)c1,"inconclusive: 17.8 µM [inhibitor, partial curve]"
6,COc1ccc(OCC(O)COc2ccc(OC)cc2)cc1,inactive
7,CC(=O)c1ccc(OCC(O)CN2CCN(CCO)CC2)cc1 (stereo unspecified),"inconclusive: 100 µM [inhibitor, partial curve, poor fit]"
8,CCc1nc(SCC(=O)N2CCC(Cc3ccccc3)CC2)c2c(=O)n(C)c(=O)n(C)c2n1,"inconclusive: 5.62 µM [inhibitor, full curve, poor fit]"
9,Clc1ccc(CN(Cc2ccc(Cl)cc2)c2nn[nH]n2)cc1,"inconclusive: 39.8 µM [inhibitor, single point]"
10,CCC(=O)N1CCc2cc(Br)cc(S(=O)(=O)NCc3ccccc3OC)c21,inactive
11,CC(=O)Nc1ccc(C(=O)OCC(=O)c2cccc([N+](=O)[O-])c2)cc1,inactive
12,CNC(=O)NC(=O)C(C)OC(=O)c1ccc(Cl)c(S(=O)(=O)Nc2ccc(F)cc2)c1 (stereo unspecified),"inconclusive: 10 µM [inhibitor, partial curve]"
13,Cc1cc(C)cc(N(CCC#N)C(=O)COC(=O)c2ccc(OCc3c(C)noc3C)cc2)c1,"inconclusive: 39.8 µM [inhibitor, single point]"
14,O=C(CS(=O)(=O)c1ccccc1)c1cc2ccccc2oc1=O,inactive
15,CC(=O)Nc1ccc(S(=O)(=O)N2CCN(CCC#N)CC2)cc1,active: 44.7 µM
16,CCN(CC)S(=O)(=O)c1ccc(Cl)c(C(=O)Nc2ccc(Cl)cc2[N+](=O)[O-])c1,inactive
17,CCOC(=O)Cn1c(=O)oc2cc(S(=O)(=O)NCc3cccs3)ccc21,inactive
18,Cc1cccc(NC(=O)c2ccc(Cl)c(S(=O)(=O)N3CCCCC3)c2)n1,inactive
19,O=[N+]([O-])c1cccc(C(=Nc2ccc(Cl)cc2)NO)c1,"inconclusive: 22.4 µM [inhibitor, single point]"
20,Cc1ccc(NC(=O)CN(C)C(=O)COC(=O)/C=C/c2cccs2)cc1,"inconclusive: 35.5 µM [inhibitor, single point]"
21,Cc1noc(NS(=O)(=O)c2ccc(NC(=O)CSc3ncccn3)cc2)c1C,"inconclusive: 50.1 µM [inhibitor, partial curve, poor fit]"
22,COc1cccc(NC(=O)CN(C)C(=O)c2ccc(N3CCOCC3)c([N+](=O)[O-])c2)c1,"inconclusive: 31.6 µM [inhibitor, single point]"
23,Cc1ccn2c(C(=O)CSc3ccccc3Cl)c(C)nc2c1,active: 0.316 µM

row,Structure (SMILES),Potency
1,Nc1nc(SCC(=O)Nc2ccc([N+](=O)[O-])cc2)[nH]c(=O)c1NC(=O)c1ccc(Br)o1,inactive
2,COc1ccc(CC(=O)NC(=S)Nc2ccc(S(=O)(=O)NC(C)(C)C)cc2)cc1,"inconclusive: 20 µM [inhibitor, partial curve]"
3,COC(=O)C1=C(C)N(Cc2ccccc2)C(=S)N[C@H]1c1cccc(F)c1,"inconclusive: 3.98 µM [inhibitor, partial curve]"
4,Cc1ccc(Cl)cc1NC(=O)Nc1cccs1,active: 14.1 µM
5,COCCCN(C(=S)NC(=O)c1ccc(Br)cc1)c1c(N)n(Cc2ccccc2)c(=O)[nH]c1=O,active: 5.62 µM
6,CCOC(=O)c1ccc(NC(=O)c2ccccc2)cc1,active: 10 µM
7,Cc1cccc(N(C(=O)c2sc(C)nc2C)C(C(=O)NCc2ccco2)c2ccccc2)c1 (stereo unspecified),"inconclusive: 4.47 µM [inhibitor, single point]"
8,N#Cc1c(NC(=O)Cn2cnc3ccccc3c2=O)oc(-c2ccccc2)c1-c1ccccc1,"inconclusive: 3.55 µM [inhibitor, single point]"
9,COC(=O)C1=C(c2cccc3c2S(=O)(=O)c2ccccc2-3)C[C@@H]2CC[C@H]1N2C(=O)N1CCc2cc(OC)c(OC)cc2C1,inactive
10,C=CCOc1ccccc1/C=N/NC(=O)c1ccc(Cl)cc1Cl,active: 25.1 µM
11,c1ccc(CN2CCN(c3ncnc4nc[nH]c34)CC2)cc1,"inconclusive: 44.7 µM [inhibitor, partial curve, poor fit]"
12,Cc1cc(=O)oc2cc(OCC(=O)OCC(=O)N3CCc4ccccc43)ccc12,"inconclusive: 6.31 µM [inhibitor, single point]"
13,O=C(O)[C@H]1CCC(=O)N1Cc1ccco1,inactive
14,CN(CC(=O)Nc1cccc(F)c1)CC(=O)Nc1ccccc1Oc1ccccc1,inactive
15,COc1ccccc1NC(=S)NCCc1c[nH]c2ccccc12,"inconclusive: 25.1 µM [inhibitor, single point]"
16,COc1ccc(C2CC(c3cccc(C)c3)n3nc(N)nc3N2)cc1 (stereo unspecified),"inconclusive: 3.98 µM [inhibitor, full curve, poor fit]"
17,CCNC(=O)C1CC(=O)OC12CCCCC2 (stereo unspecified),inactive
18,COc1ccccc1NC(=O)c1nn(-c2ccc(OC(F)(F)F)cc2)ccc1=O,"inconclusive: 0.708 µM [inhibitor, partial curve, poor fit]"
19,O=C(CCc1c[nH]c2ccccc12)OCC(=O)N1CCN(S(=O)(=O)c2ccccc2)CC1,"inconclusive: 39.8 µM [inhibitor, single point]"
20,O=C(NN1C(=O)/C(=C/c2cccnc2)SC1=S)C(c1ccccc1)c1ccccc1,"inconclusive: 12.6 µM [inhibitor, partial curve]"
21,CC(=NCC1CCCO1)c1c(O)n(Cc2ccccc2)c(=O)[nH]c1=O (stereo unspecified),active: 2.24 µM
22,COc1ccc(NC(=O)C2CCCN(S(=O)(=O)c3cccc4cccnc34)C2)cc1OC (stereo unspecified),"inconclusive: 4.47 µM [inhibitor, full curve, poor fit]"
23,Cc1cc(O)c(C(=O)/C=C/c2c(F)c(F)c(F)c(F)c2F)c(=O)o1,active: 11.2 µM
